Source: ChEMBL document CHEMBL4888484, “Replenishing the malaria drug discovery pipeline: Screening and hit evaluation of the MMV Hit Generation Library 1 (HGL1) against asexual blood stage Plasmodium falciparum ,using a nano luciferase reporter read-out” (2022)
In all, about 150,000 compounds went through this assay and about 540 (0.36%) showed an effect of 50% or more. Some of the results follow.

Test system: Plasmodium falciparum
Assay: Primary screen in NF54 nanoGlo assay, in single point, at 2uM, 72h; a lower Z score goes with more inhibition
Assay type: functional, Erythrocyte
Settings: timepoint 72 hour

**Q.** `CN(C)c1ccc2c(c1)OCCN2C(=O)c1ccc2c(c1)C(=O)N(C[C@H]1CCCO1)C2=O` was tested. Which “% Inhibition” value did it give?
**A.** -12%

**Q.** What about the Z score of the same compound?
**A.** 2.28

**Q.** With `CC(C)c1nccc(C(=O)N2CCn3cncc3C2)n1` as the compound, how does the “% Inhibition” value read?
**A.** -3%

**Q.** And the Z score?
**A.** 0.68

**Q.** For `Cc1cc(C)nc(NCC(=O)Nc2ncc(C)s2)n1`, which “% Inhibition” value is on record?
**A.** -12%

**Q.** And the Z score?
**A.** 2.21

**Q.** How did the “% Inhibition” value turn out when `CCOC(=O)[C@H]1CCCN1c1cc(C(=O)OC)ncn1` was run?
**A.** -12%

**Q.** What about the Z score of the same compound?
**A.** 1.6

**Q.** Which results are given for `CNCCN(C)C(=O)Cc1c[nH]c(=O)n(C)c1=O`?
**A.** % Inhibition: -9%; Z score: 0.95

**Q.** With `Cc1ccc2c(c1)c(=O)c(C(=O)NCCCn1nnc3ccccc31)cn2C` as the compound, how does the “% Inhibition” value read?
**A.** 0%

**Q.** What about the Z score of the same compound?
**A.** -0.02

**Q.** How did the “% Inhibition” value turn out when `Cc1cc(C(=O)N2CCC[C@H](OC(=O)N(C)C)C2)c(C(F)(F)F)o1` was run?
**A.** -5%

**Q.** And the Z score?
**A.** 0.67

**Q.** How did the “% Inhibition” value turn out when `Cc1cccc(S(=O)(=O)NC(=O)CCn2cccn2)c1Cl` was run?
**A.** -5%

**Q.** What about the Z score of the same compound?
**A.** 0.72

**Q.** For `Cc1nc2c(CCNC(=O)[C@H]3CCOC4(CCC4)C3)cccc2o1`, which “% Inhibition” value is on record?
**A.** 17%

**Q.** And the Z score?
**A.** -1.94

**Q.** With `CC[C@H](NC(=O)CCc1n[nH]c(C)c1C)c1ccc(S(C)(=O)=O)cc1` as the compound, how does the “% Inhibition” value read?
**A.** -15%

**Q.** And the Z score?
**A.** 2.77

**Q.** How did the “% Inhibition” value turn out when `Cc1nn(C)cc1S(=O)(=O)NC(c1cnc2ccccc2c1)[C@H]1C[C@@H](O)C1` (some centres not stated) was run?
**A.** -2%

**Q.** And the Z score?
**A.** 0.3

**Q.** Which “% Inhibition” value does the source give for `CCC1=NN(C(=O)c2ccccc2)[C@@](O)(c2ccncc2)C1` here?
**A.** -10%

**Q.** And the Z score?
**A.** 2

**Q.** What does the source list for `c1ccc(-c2ccc(-c3[nH]c(-c4c[nH]c5ccccc45)nc3-c3ccccc3)cc2)cc1`?
**A.** % Inhibition: 2%; Z score: -0.29

**Q.** Which results are given for `COCCN1C[C@H]2CCN(C/C=C/c3ccccc3)[C@H]2C1`?
**A.** % Inhibition: 2%; Z score: -0.47

**Q.** With `Cc1cccc(-c2csc(N3CCN(C(c4ccccc4)c4ccccc4)CC3)n2)c1` as the compound, how does the “% Inhibition” value read?
**A.** 10%

**Q.** And the Z score?
**A.** -1.68

**Q.** What does the source list for `Cn1nnc(C(=O)NC[C@H]2C[C@@H]2c2ccc(Cl)cc2Cl)n1`?
**A.** % Inhibition: 1%; Z score: -0.08

**Q.** With `Cc1c(C(=O)Nc2ncccc2OCc2cccc(Cl)c2)cnn1CC(C)C` as the compound, how does the “% Inhibition” value read?
**A.** -13%

**Q.** What about the Z score of the same compound?
**A.** 1.54

**Q.** Which results are given for `O[C@H]1[C@H](NC2CCCC2)[C@H]2CO[C@H](O2)[C@@H]1n1cnc2ccccc21`?
**A.** % Inhibition: 29%; Z score: -3.27

**Q.** With `CN(C)CCN(C)C(=O)Nc1ccc(Br)cn1` as the compound, how does the “% Inhibition” value read?
**A.** -8%

**Q.** What about the Z score of the same compound?
**A.** 0.98

**Q.** For `CCCC(=O)N1CCC(OC(=O)c2c(C)nn(C)c2OC)CC1`, which “% Inhibition” value is on record?
**A.** -7%

**Q.** What about the Z score of the same compound?
**A.** 0.6

**Q.** Which “% Inhibition” value does the source give for `CCn1ncc(-c2ccnc3cc(C(=O)Nc4ccc(C(C)C)cc4)nn23)c1C` here?
**A.** 3%

**Q.** What about the Z score of the same compound?
**A.** -0.32

**Q.** For `C[C@@]1(C(=O)NCc2ccccc2)Cn2nc(-c3cccs3)cc2C(=O)N1Cc1cccnc1`, which “% Inhibition” value is on record?
**A.** 2%

**Q.** And the Z score?
**A.** -0.37

**Q.** How did the “% Inhibition” value turn out when `Cc1ccc(NC(=O)c2ccc(N3CCOCC3)nn2)cc1Cl` was run?
**A.** 0%

**Q.** What about the Z score of the same compound?
**A.** 0

**Q.** `CCc1nnc(CN2C(=O)C[C@](C)(c3ccc(C)cc3)C2=O)o1` was tested. Which “% Inhibition” value did it give?
**A.** -4%

**Q.** What about the Z score of the same compound?
**A.** 0.39

**Q.** For `CCOc1ccc(NC(=O)N2CCc3c([nH]c4ccc(OC)cc34)[C@H]2c2ccc(F)cc2)cc1`, which “% Inhibition” value is on record?
**A.** 12%

**Q.** What about the Z score of the same compound?
**A.** -1.4

**Q.** With `CN(C)C1(CNc2cc(-c3ccccc3F)nc3ccnn23)CCOCC1` as the compound, how does the “% Inhibition” value read?
**A.** -10%

**Q.** And the Z score?
**A.** 1.39

**Q.** Which “% Inhibition” value does the source give for `O=C(NCCc1csc(-c2ccccc2)n1)C1CCN(C(=O)c2ccc(F)c(F)c2)CC1` here?
**A.** -8%

**Q.** What about the Z score of the same compound?
**A.** 0.99

**Q.** Which “% Inhibition” value does the source give for `Cc1ccoc1CNC(=O)N1CCC2(CCC2)S(=O)(=O)CC1` here?
**A.** -1%

**Q.** And the Z score?
**A.** 0.19

**Q.** Which results are given for `O=C(Nc1ccc(-n2nncc2-c2ccco2)cc1)c1ccc(F)cc1`?
**A.** % Inhibition: -3%; Z score: 0.35

**Q.** How did the “% Inhibition” value turn out when `COC(=O)C1CCN(c2nc(N3CCCC3)nc(N3CCCC3)n2)CC1` was run?
**A.** -14%

**Q.** And the Z score?
**A.** 2.26

**Q.** Which results are given for `Cn1nnnc1NC(=O)[C@H]1C2CCC(CC2)[C@@H]1C(F)(F)F`?
**A.** % Inhibition: -9%; Z score: 1.42

**Q.** How did the “% Inhibition” value turn out when `Cc1nsc(NC(=O)C[C@H]2CCCC(C)(C)C2)c1C#N` was run?
**A.** -12%

**Q.** What about the Z score of the same compound?
**A.** 1.66

**Q.** Which “% Inhibition” value does the source give for `Cn1cc(CCC(=O)N2CCC3(CC2)[C@H](O)C[C@@H]3O)cn1` here?
**A.** -6%

**Q.** What about the Z score of the same compound?
**A.** 0.97

**Q.** `Cc1ccc(F)c(OC2(C(=O)O)CCN(Cc3ccoc3)CC2)c1` was tested. Which “% Inhibition” value did it give?
**A.** -5%

**Q.** And the Z score?
**A.** 0.98

**Q.** For `CCS(=O)(=O)CCn1nnc(-c2ccco2)n1`, which “% Inhibition” value is on record?
**A.** -7%

**Q.** What about the Z score of the same compound?
**A.** 1.3

**Q.** What does the source list for `Cc1ccc(NC(=O)c2ccnc(C(F)(F)F)c2)cc1OCC1CCOCC1`?
**A.** % Inhibition: -13%; Z score: 1.07

**Q.** With `Cc1cccc(C(=O)Nc2ccccc2C(=O)OCc2nc(C)no2)c1` as the compound, how does the “% Inhibition” value read?
**A.** -16%

**Q.** What about the Z score of the same compound?
**A.** 2.09

**Q.** How did the “% Inhibition” value turn out when `Cn1cc(CCC(=O)N2CCc3cc4ccc3[C@@H]2c2cccc(c2)OCCCn2cc(nn2)CO4)cn1` was run?
**A.** -11%

**Q.** What about the Z score of the same compound?
**A.** 1.25

**Q.** For `O=S(=O)(Oc1cccc(-c2nnco2)c1)c1ccc2ccccc2c1`, which “% Inhibition” value is on record?
**A.** -1%

**Q.** And the Z score?
**A.** 0.11

**Q.** What does the source list for `O=C1CCCCN1CCC(=O)N1CCc2onc(-c3cccc4ccccc34)c2C1`?
**A.** % Inhibition: -1%; Z score: 0.1

**Q.** With `O=C(c1ccccc1)N1CCN(C(=O)c2cc3nc4c(c(C(F)(F)F)n3n2)CCc2ccccc2-4)CC1` as the compound, how does the “% Inhibition” value read?
**A.** -13%

**Q.** And the Z score?
**A.** 1.69
